{"source": "paper PMC8869507", "about": "“Gel-Forming of Self-Assembling Peptides Functionalized with Food Bioactive Motifs Modulate DPP-IV and ACE Inhibitory Activity in Human Intestinal Caco-2 Cells” (Biomedicines, 2022)", "origin": "cited, not measured here", "test_system": "Caco-2 cells", "settings": "apical side of Caco-2 cells, trans-epithelial transport; ref [29]; cited from earlier work", "from_the_text": "This difference was explained ...", "data": [{"sequence": "IAVPTGVA [Soy1]", "values": [{"measurement": "break-down fragments by intestinal peptidases", "value": "partially degraded in three small peptides AVPTGVA, IAVPT, and IAVP"}]}]}
